Test results: the supplement of paper PMC4166925
± gives the standard deviation of the averaged measurements. In all, about 33,000 sequences were measured (“E-score (dimensionless, -0.5 to 0.5)”: median about -0.046, highest 2% from about 0.36 on). Some of the results follow.

The sequences below were run on T1, SpTbr T-box DNA-binding domain (GST fusion) (assay: PBM E-score of 8-mer (E-score (dimensionless, -0.5 to 0.5)); Tbr is Tbrain of the sea star Patiria miniata (Pm) or the sea urchin Strongylocentrotus purpuratus (Sp); higher = stronger binding preference; most listed sequences are background and not binding sites). Conditions: the construct has about 5 more residues each side.
T1 sequence: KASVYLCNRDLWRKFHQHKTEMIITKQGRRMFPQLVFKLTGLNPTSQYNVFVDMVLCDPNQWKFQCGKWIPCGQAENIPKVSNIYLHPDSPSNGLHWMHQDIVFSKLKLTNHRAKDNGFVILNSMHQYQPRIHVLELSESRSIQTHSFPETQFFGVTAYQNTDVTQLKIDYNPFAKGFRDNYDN
Protocol: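 Universal protein-binding microarray (Agilent AMADID 016060, 60-bp probes with a 35-bp variable region) incubated with 200 nM GST-fused Strongylocentrotus purpuratus Tbr T-box DNA-binding domain (residues 362-554) in PBS pH 7.5. Scored for every ungapped 8-mer (given with its reverse complement) as E-score (range -0.5 to 0.5; >0.45 counts as bound) and Z-score of median probe intensity. Two replicate arrays (datasets 1 and 2).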
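Also: protein at 200 nM in PBS on universal double-stranded arrays.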

Point of comparison: ACGTATAG, “PBM E-score of 8-mer” value -0.0367 ± 0.13. Against it:
- GCAAACCA — within error, -0.125 ± 0.018
- ATCCTAGG — lower, -0.228 ± 0.0046
- CCTACAGA — within error, 0.00408 ± 0.039
- ACCCCGGT — within error, -0.0545 ± 0.1
- CTGGAGCC — within error, -0.129 ± 0.002
- AATGGGGT — within error, 0.0277 ± 0.0059
- CAGATCTC — within error, -0.147 ± 0.011
- AGGCTCCC — within error, -0.131 ± 0.031
- ACCAAAAA — within error, -0.101 ± 0.044
- AGCACACC — higher, 0.325 ± 0.014
- AACCAAAC — within error, -0.0869 ± 0.019
- ATTTAGGC — within error, -0.0463 ± 0.057
- GACGTCTC — lower, -0.243 ± 0.019
- GAGTGAAA — within error, 0.0605 ± 0.051
- TCCAACCA — within error, -0.158 ± 0.0034
- ATCTAGGG — within error, -0.144 ± 0.0067
- ATCGTGCC — within error, -0.034 ± 0.062
- CTGAGCAA — within error, -0.0753 ± 0.059
- CCTTGCAC — higher, 0.172 ± 0.0042
- GAACGTTC — within error, 0.103 ± 0.089
- GAGCGTAC — within error, -0.177 ± 0.088
- ATTGCCAC — higher, 0.232 ± 0.0046
- AGCGATTA — within error, -0.0349 ± 0.049
- AGCCGAAG — lower, -0.259 ± 0.046
- ATCCATGA — lower, -0.304 ± 0.058
- CAGGACCA — within error, -0.184 ± 0.065
- CCGTGGCC — within error, -0.0673 ± 0.016
- CTGAAAAG — within error, -0.065 ± 0.042
- ACCAGCTA — within error, -0.0508 ± 0.0037
- ATTATCCC — within error, -0.108 ± 0.0045
- ATGCGCAA — within error, -0.0169 ± 0.032
- CGTGAAAG — higher, 0.329 ± 0.0083
- ACTGCCCA — within error, -0.115 ± 0.092
- CTAAGTGC — higher, 0.191 ± 0.017
- CCATAGGG — within error, -0.0592 ± 0.069
- GTCTGCGA — within error, 0.015 ± 0.1
- AGATGATC — within error, 0.000165 ± 0.08
- AGTCGTCG — within error, 0.0377 ± 0.057
- TGCAAGCA — within error, -0.0139 ± 0.019
- CGTCATTC — within error, -0.0264 ± 0.0013
- CATGCTCA — within error, 0.0407 ± 0.052
- AGCCTTCG — within error, -0.0252 ± 0.058
- CATGCCTC — within error, -0.165 ± 0.086
- GTAGCTAA — within error, -0.102 ± 0.037
- CAGGCAGA — within error, -0.155 ± 0.042
- CTAGCGGC — within error, 0.00847 ± 0.04
- GCCGCGTA — within error, -0.00698 ± 0.037
- AGTAGGCC — lower, -0.21 ± 0.015
- AACTGGTC — lower, -0.224 ± 0.026
- AGAGGGTG — higher, 0.308 ± 0.0036
- CGAGGATA — within error, -0.107 ± 0.0043
- ATCGTGGA — within error, -0.0288 ± 0.0096
- GAAGCGAC — within error, 0.105 ± 0.022
- AAGCCTAT — within error, -0.166 ± 0.025
- AACCAAGG — lower, -0.3061 ± 0.0024
- GCCTCAAA — lower, -0.23 ± 0.061
- AAAGGCGT — higher, 0.262 ± 0.049
- CTGCAGGC — within error, -0.12 ± 0.034
- GCTAAACA — within error, -0.0537 ± 0.019
- CTATGCCA — within error, 0.0317 ± 0.017
- GGTTATAA — within error, -0.0244 ± 0.035
- CAACCACG — within error, 0.149 ± 0.067
- CCTTACCC — within error, -0.191 ± 0.026
- CTTCTATA — lower, -0.219 ± 0.0024
- CATACGAG — within error, -0.133 ± 0.0046
- AATACCCT — within error, -0.038 ± 0.026
- GCGCAGGA — within error, -0.0868 ± 0.053
- AAAGCTTG — within error, -0.15 ± 0.055
- GGGTTCTA — within error, -0.0635 ± 0.067
- AAAAGCCC — lower, -0.281 ± 0.051
- AGTGAGGA — higher, 0.246 ± 0.028
- AAGGTTGT — within error, 0.0877 ± 0.038
- CCCGCACA — higher, 0.207 ± 0.038
- TTAACTAA — within error, -0.139 ± 0.062
- AACCTGGG — within error, -0.139 ± 0.017
- GCAAAGTA — within error, -0.108 ± 0.032
- TCCCCACA — higher, 0.225 ± 0.033
- ACGGATCA — within error, 0.0853 ± 0.067
- CCGGTATA — within error, -0.0723 ± 0.05
- AAATTCTA — within error, -0.145 ± 0.056
- GCTTTGCC — within error, -0.108 ± 0.066
- AGCGGCGA — within error, 0.108 ± 0.049
- AGTCAATA — within error, -0.191 ± 0.058
- GCTTCCAA — lower, -0.263 ± 0.025
- CCCACCCG — within error, 0.0685 ± 0.054
- AACTTCGT — within error, -0.129 ± 0.032
- GTTTTTGA — within error, -0.0187 ± 0.077
- ATGTACTC — within error, -0.0866 ± 0.027
- ACCCAATG — within error, -0.132 ± 0.07
- ACGGCATC — within error, -0.176 ± 0.021
- GTTGTGCA — within error, 0.0814 ± 0.0043
- CCGGTGGC — within error, -0.0144 ± 0.029
- AAGACGGT — within error, -0.148 ± 0.051
- GCCTTCTA — within error, 0.0679 ± 0.0026
- AGCCTCAA — within error, -0.141 ± 0.073
- ACCTTATC — within error, 0.0756 ± 0.077
- ACACCTGA — higher, 0.4627 ± 0.0023
- ACAGGCAG — within error, -0.0306 ± 0.038
- GTTAGCGA — higher, 0.297 ± 0.0094
- AAGGAATC — within error, -0.123 ± 0.0056
- ATTACCCG — within error, -0.0835 ± 0.042
- ATGCTTCC — within error, -0.1542 ± 0.0011
- ACACGGCA — within error, 0.0945 ± 0.05
- CTCCGCTC — lower, -0.238 ± 0.016
- TCAGCTCA — within error, -0.0289 ± 0.0093
- CACTGACA — higher, 0.233 ± 0.029
- CTGTTCAC — higher, 0.315 ± 0.012
- CATCAATG — within error, 0.0357 ± 0.0092
- CTCCGGTA — within error, -0.126 ± 0.0032
- AAAGTCTG — within error, -0.0833 ± 0.0044
- GCAGGGGC — within error, -0.13 ± 0.0028
- AGAAACCG — within error, -0.0862 ± 0.051
- GTCTGATA — within error, -0.105 ± 0.052
- TATTGGAA — lower, -0.282 ± 0.012
- ACTTTACA — higher, 0.204 ± 0.013
- ATTGCCGG — within error, 0.0152 ± 0.0069
- CAGCGCAC — within error, 0.138 ± 0.047
- AGGCTCGG — within error, -0.0308 ± 0.0026
- CGCTCTAC — within error, -0.123 ± 0.037
- CGGATAAA — lower, -0.209 ± 0.02
- CCCGACTA — within error, 0.111 ± 0.058
- TATGATAA — within error, -0.00343 ± 0.017
- AAACGCAT — within error, -0.185 ± 0.034
- TCGGGAAA — within error, -0.124 ± 0.027
- GTCTAATA — within error, -0.0116 ± 0.0076
- ATAATCAA — within error, 0.0106 ± 0.094
- CCATCCGA — lower, -0.284 ± 0.087
- ATTTGACA — higher, 0.304 ± 0.012
- GCAATTTA — within error, -0.0618 ± 0.055
- AGAGTGCC — within error, 0.0261 ± 0.019
- CGGCGGAG — within error, -0.11 ± 0.089
- CTAAGGGC — within error, 0.0508 ± 0.014
- GATCGCTA — higher, 0.136 ± 0.022
- GCACTGGA — within error, -0.0463 ± 0.011
- AAAGTAGA — within error, -0.0436 ± 0.055
- CTCGACGA — within error, 0.0119 ± 0.036
- CCTGCTCG — within error, -0.0929 ± 0.043
- GCCAATCC — within error, -0.0232 ± 0.048
- CTCAGGGA — within error, -0.142 ± 0.043
- ATGCGGCA — within error, 0.0699 ± 0.0036
- AACTTACC — within error, -0.026 ± 0.0042
- GACTAAAA — within error, -0.128 ± 0.062
- CTAACAAC — higher, 0.348 ± 0.029
- GTTTCCAA — within error, -0.0728 ± 0.051
- AGTCCCTA — within error, -0.138 ± 0.034
- GGGTCAAA — lower, -0.256 ± 0.084
- ATGCGCAG — lower, -0.191 ± 0.0042
- ATAGGATA — lower, -0.229 ± 0.011
- CGGGGCGC — within error, 0.111 ± 0.036
- ACGGCGGG — within error, -0.0323 ± 0.039
- GGAGCAAA — within error, -0.162 ± 0.071
- CAAGCCTC — within error, -0.0517 ± 0.044
- TTCAGAAA — lower, -0.292 ± 0.024
- AACAGGCC — within error, -0.0465 ± 0.036
- ATGTAATG — lower, -0.284 ± 0.014
- CCAAACCC — within error, -0.078465 ± 7.1e-06
- ACCTCAAT — within error, -0.102 ± 0.016
- TAATTGGA — within error, 0.0699 ± 0.024
- AAGTTTCG — within error, -0.142 ± 0.013
- AAGTGATA — higher, 0.288 ± 0.043
- AGTACTTG — within error, 0.00872 ± 0.051
- CGAATATA — within error, -0.171 ± 0.04
- CGATCAGA — within error, -0.0767 ± 0.051
- CACGGAGA — within error, -0.0446 ± 0.025
- AACATGTT — within error, 0.0214 ± 0.024
- CGGGCACA — within error, 0.073 ± 0.043
- CTCCAGGA — within error, -0.0597 ± 0.01
- GCCGATAA — within error, 0.0286 ± 0.1
- CGACCGCC — within error, -0.0506 ± 0.061
- TAAAATCA — within error, 0.0847 ± 0.029
- GTTAAGTA — within error, 0.117 ± 0.05
